The other results are listed elsewhere or left out. At the low end of the ranking, values are background and their order means little.
These sequences were tested against MAX:MAX (p21) (UniProt P61244-2) (assay: protein-binding microarray (anti-MAX antibody)). Settings: PBM: 15 mM Tris-HCl pH 7.5, 100 mM KCl, 0.075% NP40, 7.5 mM beta-mercaptoethanol, 375 ng/ul BSA, 8 ng/ul poly(dA-dT):(dA-dT), 550 ng complex, 60 min, room …; high values mean tight binding; double strand, one strand shown; sequences stand for … in CCGGC…TTAATAGCTAAGATTACTATATCGACG.

| Sequence | binding signal (log2 normalized fluorescence) |
| --- | --- |
| TGAGCGTAAGTA | -0.712 |
| TGATACTCCGTA | -1.1 |
| TGAATTTCGGTA | -1.08 |
| TGAGAATGGGTA | -0.483 |
| TGAGAGGCTGTA | -0.773 |
| TGACATTCGGTA | -0.00293 |
| TGAATTTGCGTA | -0.801 |
| TGAGGCCACGTA | 0.499 |
| TGATGGCGAGTA | 0.28 |
| TGATCGAGGGTA | -0.514 |
| TGAGCCTTCGTA | -1.22 |
| TGAGACATAGTA | -0.476 |
| TGACACCTGGTC | 2.68 |
| TGATCTCTTGTA | -1.02 |
| TGATCGGCAGTA | -0.571 |
| TGACTTTACGTA | -0.704 |
| TGATCTGCCGTA | -0.964 |
| TCACACGATGTA | 2.97 |
| TGAGTGGACGTA | 0.0655 |
| TGAGGAGTGGTA | 0.184 |
| TGATACTCAGTA | -0.884 |
| TGAATCTACGTA | -0.92 |

| Sequence | binding signal (log2 normalized fluorescence) |
| --- | --- |
| TGATGGTCAGTA | 0.532 |
| TGACAAAGTGTA | -0.349 |
| TGAATCTTTGTA | -1.08 |
| TGGCGCGTGGTA | 3.16 |
| TGACGCCTGGTA | 0.771 |
| TGAACTTACGTA | -0.392 |
| TGATGTACCGTA | 0.189 |
| TGAAAGACCGTA | -0.764 |
| TGATACATAGTA | -0.533 |
| ACCCAATAAGAA | 0.402 |
| TGATCAATGGTA | -0.543 |
| TGATTTTCTGTA | -1.41 |
| TGACCGACTGTA | -0.209 |
| TGATCCAAAGTA | -0.962 |
| TGATGCCATGTA | 0.303 |
| TGAAATGTTGTA | -0.219 |
| TGACATCATGTA | 1.31 |
| TGATTTTACGTA | -1.05 |
| TGAGCATCAGTA | -0.609 |
| TGACACGGGTAA | 2.05 |
| TGATTTCCCGTA | -0.738 |
| AATGCATTTTTT | 1.65 |

| Sequence | binding signal (log2 normalized fluorescence) |
| --- | --- |
| CACCACGTGGTA | 3.24 |
| TGAGTAGACGTA | -0.937 |
| TGACAGGACGTA | -0.168 |
| TGTCACGGGGTA | 3.12 |
| TGACAAAATGTA | -0.48 |
| TGATCACGAGTA | 2.55 |
| TGACAAGTAGTA | -0.386 |
| TAACACGTCGTA | 2.38 |
| TGACGTTTCGTA | -0.518 |
| TGACCAAAAGTA | -0.688 |
| TGACACCCGGTA | 0.472 |
| TGACTGAGGGTA | -0.612 |
| TGAATTGCGGTA | -0.21 |
| TGACGGAGAGTA | -0.87 |
| TGACCATCAGTA | 0.3 |
| TGAGCGACCGTA | -0.787 |
| TGAGGAGAAGTA | -0.741 |
| TGAAGCGTTGTA | 0.604 |
| TGAGGAAGCGTA | -0.805 |
| TGATCCAAGGTA | -0.618 |
| TGACACGTAAGA | 0.949 |
| TGACCTCGAGTA | 1.24 |

| Sequence | binding signal (log2 normalized fluorescence) |
| --- | --- |
| TGAAGTCGCGTA | -0.905 |
| TGAACGCCCGTA | -0.102 |
| TGATTGATTGTA | -0.978 |
| TGAGGGACCGTA | -0.619 |
| TGATAGTACGTA | -0.743 |
| TGAGGGGTGGTA | 1.59 |
| TGAAGGCGCGTA | -0.33 |
| TGATGATGGGTA | -0.279 |
| TGAAGGTAAGTA | -0.438 |
| TGAGTTCGAGTA | -1.16 |
| TGATTCTCGGTA | -1.26 |
| TGACGATATGTA | -0.374 |
| TGAATTATGGTA | -0.391 |
| CGACCCGTGCTA | 2.55 |
| TGATAGATTGTA | -1.02 |
| TGATCTCCCGTA | -0.927 |
| TGAGGTGTCGTA | -0.401 |
| TGAGTGGAGGTA | -0.11 |
| TGACACCCAGTA | 0.202 |
| TGAAGTCCCGTA | -0.659 |
| TGATGAGCTGTA | -0.592 |
